One experiment addresses T1, bovine serum albumin (bovine, UniProt P02769).
T1 construct: also called BSA
Put plainly: ELISA, detection with anti-IgG4 HP6023. A general note: An ELISA detects its analyte on a solid surface through an enzyme-linked reagent.

Experiment [1] deals with T2, soluble ICAM-1/IgG1 fusion protein (UniProt P05362 28-480, limits assumed).
T2 construct: also called ICAM-I/IgG; not shown: IgG1 portion
Put plainly: ELISA, detection with anti-IgG4 HP6023.

Chain of bovine serum albumin (P02769 25-607 limits assumed): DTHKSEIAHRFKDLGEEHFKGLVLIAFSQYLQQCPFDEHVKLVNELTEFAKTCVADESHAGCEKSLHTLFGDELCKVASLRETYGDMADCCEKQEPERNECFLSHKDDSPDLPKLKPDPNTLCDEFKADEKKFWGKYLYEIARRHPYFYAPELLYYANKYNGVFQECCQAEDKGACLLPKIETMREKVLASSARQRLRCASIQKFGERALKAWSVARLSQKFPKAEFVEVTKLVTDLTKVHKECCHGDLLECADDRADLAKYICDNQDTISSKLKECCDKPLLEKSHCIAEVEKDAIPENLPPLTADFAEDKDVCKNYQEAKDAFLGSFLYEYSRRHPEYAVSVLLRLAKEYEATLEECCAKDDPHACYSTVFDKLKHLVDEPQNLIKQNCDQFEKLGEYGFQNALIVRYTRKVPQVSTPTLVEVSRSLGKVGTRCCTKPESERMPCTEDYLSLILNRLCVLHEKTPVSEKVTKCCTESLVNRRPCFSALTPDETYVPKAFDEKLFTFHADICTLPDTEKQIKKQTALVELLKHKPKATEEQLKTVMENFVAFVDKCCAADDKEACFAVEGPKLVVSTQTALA
T2 sequence (P05362 28-480 limits assumed): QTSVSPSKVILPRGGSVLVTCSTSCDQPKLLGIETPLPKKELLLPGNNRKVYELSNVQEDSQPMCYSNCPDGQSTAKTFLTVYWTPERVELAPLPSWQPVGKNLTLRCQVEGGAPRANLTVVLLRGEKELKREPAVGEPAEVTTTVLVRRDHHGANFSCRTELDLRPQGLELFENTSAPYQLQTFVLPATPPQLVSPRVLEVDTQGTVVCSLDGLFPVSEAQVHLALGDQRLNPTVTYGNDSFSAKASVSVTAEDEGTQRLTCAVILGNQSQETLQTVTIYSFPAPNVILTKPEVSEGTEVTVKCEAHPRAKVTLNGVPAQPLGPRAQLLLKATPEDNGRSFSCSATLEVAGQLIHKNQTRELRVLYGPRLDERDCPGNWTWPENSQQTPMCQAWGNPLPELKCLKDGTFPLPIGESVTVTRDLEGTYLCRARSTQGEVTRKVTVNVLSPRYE

B1: human αd I domain/IgG4 fusion protein (Fc fusion)
chain: HQEMDIVFLIDGSGSIDQNDFNQMKGFVQAVMGQFEGTDTLFALMQYSNLLKIHFTFTQFRTSPSQQSLVDPIVQLKGLTFTATGILTVVTQLFHHKNGARKSAKKILIVITDGQKYKDPLEYSDVIPQAEKAGIIRYAIGVGHAFQGPTARQELNTISSAPPQDHVFKVDNFAALGSIQKQLQEKIYAVEGTQSRASSSFQHEMSQEGFS[… human IgG4 Fc …]
notes: also called Iαd/IgG4; I domain chimera
B1: the binding result (in the experiment with bovine serum albumin; in experiment [1]) was “no binding” each time.

These data come from EP2182008A2 (ICOS Corporation, dated 2010).
